# Out of some 310,000 compounds screened, about 2,200 (0.71%) showed an effect of 50% or more. Effects have a minus sign here. This is one part of the list.
# Molecular target: human ether-à-go-go-related gene (hERG) potassium channel (human, UniProt Q12809)
# Test: primary screen, population patch clamp on CHO cells stably expressing hERG
# human ether-à-go-go-related gene (hERG) potassium channel, sequence (Q12809 whole entry, looked up): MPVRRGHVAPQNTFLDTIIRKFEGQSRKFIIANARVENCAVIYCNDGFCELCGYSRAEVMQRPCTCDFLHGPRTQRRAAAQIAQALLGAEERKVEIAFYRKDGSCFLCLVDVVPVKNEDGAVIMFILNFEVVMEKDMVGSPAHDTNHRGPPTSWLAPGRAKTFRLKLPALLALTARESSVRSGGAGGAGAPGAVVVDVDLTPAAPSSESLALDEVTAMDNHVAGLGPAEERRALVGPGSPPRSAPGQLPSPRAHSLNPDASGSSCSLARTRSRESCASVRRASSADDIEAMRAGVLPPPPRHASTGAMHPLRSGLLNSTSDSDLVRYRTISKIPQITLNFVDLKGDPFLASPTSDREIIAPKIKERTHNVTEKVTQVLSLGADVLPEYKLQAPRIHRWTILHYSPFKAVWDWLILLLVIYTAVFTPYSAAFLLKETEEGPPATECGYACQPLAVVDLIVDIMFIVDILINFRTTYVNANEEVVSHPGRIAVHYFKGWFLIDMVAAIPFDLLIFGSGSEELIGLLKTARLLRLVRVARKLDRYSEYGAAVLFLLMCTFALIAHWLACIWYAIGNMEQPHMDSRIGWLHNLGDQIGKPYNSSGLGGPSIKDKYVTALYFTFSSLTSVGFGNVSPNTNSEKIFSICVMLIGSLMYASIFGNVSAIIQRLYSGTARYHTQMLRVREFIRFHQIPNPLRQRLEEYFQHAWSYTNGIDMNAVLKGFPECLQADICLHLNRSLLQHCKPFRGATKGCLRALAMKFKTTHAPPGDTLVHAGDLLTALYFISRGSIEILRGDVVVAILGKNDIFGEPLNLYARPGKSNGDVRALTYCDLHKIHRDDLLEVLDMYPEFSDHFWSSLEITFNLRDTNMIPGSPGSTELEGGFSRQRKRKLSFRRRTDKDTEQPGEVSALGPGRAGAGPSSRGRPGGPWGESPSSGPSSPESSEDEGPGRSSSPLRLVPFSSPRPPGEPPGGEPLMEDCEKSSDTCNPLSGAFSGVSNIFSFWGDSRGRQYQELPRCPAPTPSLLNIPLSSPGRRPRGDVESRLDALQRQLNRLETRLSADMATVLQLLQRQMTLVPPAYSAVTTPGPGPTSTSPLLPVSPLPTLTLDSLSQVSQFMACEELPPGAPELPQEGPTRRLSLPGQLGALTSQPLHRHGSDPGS
row,Structure (SMILES),"hERG current change (%, negative = inhibition) at 1uM [%]"
1,CN(Cc1ccc(F)cc1)C(=O)c1ccc(NS(=O)(=O)c2ccccc2)cc1,-1.99
2,O=C(Nc1ccc(S(=O)(=O)Nc2ncccn2)cc1)c1ccccc1NS(=O)(=O)c1ccc(F)cc1,14
3,Cc1ccc(-c2noc(CCC(=O)Nc3cccc(C#N)c3)n2)cc1,-3.58
4,COc1cccc(-c2noc(C3CCCN(S(=O)(=O)c4cccc(Cl)c4C)C3)n2)c1 (stereo not shown),4.54
5,CCOC(=O)c1cc2cc3ccccc3cc2oc1=O,12.6
6,CC1CN(C(=O)CCCN2C(=O)c3ccccc3C2=O)CC(C)O1 (stereo not shown),15.7
7,CC[C@@H](C)[C@H](NS(=O)(=O)c1ccc(C)cc1)C(=O)N1CCC(C(=O)NCC(=O)O)CC1,6.57
8,CCc1cc(C(=O)N=Nc2c(O)[nH]c3c(Br)cc(Br)cc23)c2ccccc2n1,15.5
9,CCCCCC(=O)Nc1ccc(C2C(=O)c3ccccc3C2=O)cc1,2.75
10,COc1ccccc1CNCC(O)Cn1c2ccccc2c2ccccc21 (stereo not shown),0.674
11,Cc1ccc(N2CC(C(=O)N3CCCCCC3)CC2=O)cc1 (stereo not shown),21.1
12,CN1/C(=C\C=C2/C(=O)Oc3ccccc3C2=O)C(C)(C)c2ccccc21,9.75
13,CC(=O)c1cc(CC=C(C)C)c(O)c(CC=C(C)C)c1O,4.07
14,CCOC(=O)C1C(=O)NC(c2ccccc2)=NC1c1ccc(Cl)cc1 (stereo not shown),7.02
15,Cc1ccc(-n2nnnc2-c2ccccc2)cc1,12.8
16,CCc1ccccc1NC(=O)Nc1ccc2c(c1)OCO2,12.6
17,Clc1cc(NC2CCCCC2)ncn1,24.7
18,CCc1ccc(C(=O)COC(=O)CNC(=O)c2ccc(N3C(=O)c4ccccc4C3=O)cc2)cc1,5.3
19,COC(=O)c1ccc(C2C(C(=O)Nc3ccc(C)cc3C)=C(C)Nc3ncnn32)cc1 (stereo not shown),5.02
20,CCOCCc1c(O)nc(SCCOc2ccc(C)c(C)c2)[nH]c1=O,2.59
21,CN(C)S(=O)(=O)c1ccc(C(=O)Nc2nnc(SCc3ccccc3)s2)cc1,0.463
22,O=C(CN1C(=O)CSc2ccccc21)Nc1ccccc1C(=O)N1CCOCC1,7.64
23,CN(c1ccccc1)S(=O)(=O)c1cccc(NC(=O)c2nn(C)c(=O)c3ccccc23)c1,9.84
24,Cc1ccc(C(=O)COC(=O)CCN2C(=O)C3C4CCC(C4)C3C2=O)cc1C (stereo not shown),14.6
25,CCC(=O)c1ccc(Oc2nc3c(c(=O)n(C)c(=O)n3C)n2CC)cc1,12.8
26,CCOc1ccc(/C=N/N2CCN(Cc3ccccc3)CC2)cc1,7.57
27,COc1ccc(CN2C(=O)NC3(CCOc4ccccc43)C2=O)cc1F (stereo not shown),15.8
28,CN(C)CCCC(C)(O)C(Cc1ccccc1)c1ccccc1.Cl (stereo not shown),12.2

row,Structure (SMILES),"hERG current change (%, negative = inhibition) at 1uM [%]"
1,CC1(c2ccc3c(c2)OCCO3)NC(=O)N(CC(=O)Nc2c(F)cccc2F)C1=O (stereo not shown),8.42
2,O=C(COC(=O)C1CC(=O)N(CCc2ccccc2)C1)c1ccc[nH]1 (stereo not shown),-24
3,FC(F)(F)c1ccc(Oc2ccccc2Cl)nc1,9.78
4,CCN(CC)CCN1C(=O)c2ccccc2NC1c1cc(OC)c(OC)c(OC)c1 (stereo not shown),-3.95
5,CCCn1c(N)c(N(CCOC)C(=O)c2ccc(C#N)cc2)c(=O)[nH]c1=O,16
6,CCOC(=O)Cc1csc(NS(=O)(=O)c2ccc([N+](=O)[O-])cc2)n1,10.8
7,CC(=O)Nc1cccc(NC(=O)COc2ccc3c(c2)CCC3)c1,6.87
8,COCCNC(=O)C(c1cccs1)N(Cc1ccccc1)C(=O)Cn1nnc2ccccc21 (stereo not shown),4.06
9,CCOC(=O)NC(=O)/C(C#N)=N\Nc1cccc(Cl)c1,11.1
10,Cc1cccc(NC(=O)COC(=O)c2ccc(C)c(S(=O)(=O)N3CCCCC3)c2)c1,-0.561
11,CCCN(CCC)CCCNC(=O)C1CCC(CNS(=O)(=O)c2cccc3nsnc23)CC1 (stereo not shown),9.03
12,COc1cccc(N2CC(=O)Nc3c(oc4nc(-c5ccccc5)cc(C)c34)C2=O)c1,9.86
13,CC1CCN(S(=O)(=O)c2ccc(C(C)C)cc2)CC1,21.6
14,CC(=O)NC(c1cccc([N+](=O)[O-])c1)c1c(OC(C)=O)ccc2ccccc12 (stereo not shown),3.02
15,CC1CC(C)CN(c2oc(-c3ccco3)nc2C#N)C1 (stereo not shown),9.03
16,NC(=O)c1nsc(C(=O)N(c2cccc(O)c2)C(C(=O)NC2CCCC2)c2ccc(Cl)cc2)c1N (stereo not shown),5.85
17,CCc1ccc2nc(N(CCN(C)C)C(=O)/C=C/c3cccs3)sc2c1.Cl,3.37
18,CC(=O)N/C(=C/c1ccc2c(c1)OCO2)C(=O)NCC(=O)O,13.2
19,CC1CCN(S(=O)(=O)c2ccc(NC(=O)CN3CCOCC3)cc2)CC1,-6.08
20,COc1ccccc1CNC(=O)N1CCN(S(=O)(=O)c2ccc(Cl)cc2)CC1,11.1
21,CN(c1ccc(C(=O)N2CCc3ccccc3C2)cc1)S(C)(=O)=O,-2.2
22,O=C1CC(NS(=O)(=O)c2cccnc2)CN1c1cccc(F)c1 (stereo not shown),10.3
23,Cc1ccc(C[n+]2cc(-c3ccc(Cl)cc3)n3c2CCC3)cc1.[Cl-],-14.5
24,N#CCc1ccc(NS(=O)(=O)c2cccs2)cc1,-0.91
25,NCCCC[C@H]1CN=C(N)N1CCCCC1CCCCC1,6.58
26,COc1ccccc1/C=N/OC(=O)c1ccc(C)cc1,7.27
27,Cc1c(C(=O)Nc2ccc(S(=O)(=O)NCC3CCCO3)cc2)cccc1[N+](=O)[O-] (stereo not shown),-3.96
